Among all 46,000 compounds or so, about 60 (0.1%) were called active. Roughly 3% stayed inconclusive and do not appear here. Calls follow the shape of the dose curve; as a rule, active = well fitted inhibition curve with a large enough effect; inconclusive = small, poorly fitted or top-dose-only effect; inactive = no such curve, though single readings can be large or run the other way. The list shows a part of the results.
Assay: Primary qHTS assay for Inhibitors of ovarian cancer metastasis using an organotypic tumor microenvironment (TME) model. Also: nearly all actives have a fitted effect of over 65% in size.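 As to activity change, negative = inhibition: plate controls were DMSO wells for no effect and tomatine positive control wells for full effect.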
Settings: SKOV3ip1-GFP adhesion/invasion on 3D omental model, fluorescence; series mostly up to 45.8 µM; activity change, negative = inhibition: at the top concentration
Procedure, shortened: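 qHTS, 4-pt dose (0.36-46 umol/L); SKOV3ip1-GFP, 1,200 cells/well, no FBS; primary omental fibroblast/mesothelial co-culture 48 h pre-grown; 2 h RT + 16 h 37 C; PBS wash, 4% PFA; GFP count 488/509 nm.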

Activity change, negative = inhibition, inactive:
Cc1ccccc1NC(=O)c1c(C)oc2ccc(O)c(CN3CCCC3)c12 3.95%
COc1cccc(-c2cc(C(=O)Nc3cc(C)nn3-c3ccccc3)no2)c1 -19.9%
CCN(CC)S(=O)(=O)c1nnc(NC(=O)c2ccccc2Cl)s1 4.68%
COc1ccc(NC(=O)Cn2c(=O)n(CC3CCCO3)c(=O)c3ccccc32)c(OC)c1 (stereo not given) 2.77%
COc1cc(OC)cc(C(=O)Nc2ccc3oc(-c4ccccc4C)nc3c2)c1 3.08%
CCC(=O)Nc1ccc(C)cc1-c1nc2ccccc2n(CC(=O)Nc2ccccc2Cl)c1=O -13.6%
COc1ccc(-c2cc(C(F)(F)F)nc(SCC(=O)N(C)Cc3ccccc3)n2)cc1OC -4.62%
CCOc1ccc(CNC(=O)c2ccc3c(c2)nc2n3CCOC2)cc1 7.09%
COc1ccc(N(C(=O)c2ccccc2F)S(=O)(=O)c2ccc3c(c2)n(C)c(=O)n3C)cc1 1.27%
CCN1CCN(CCCNC(=O)c2cc3c(=O)n(CC)c4ccccc4c3s2)CC1 -24.4%
CC(=O)N1CCOc2cc(S(=O)(=O)NCc3ccc(C)cc3)c(C)cc21 -8.84%
Cc1ccc(C)c2sc(NC(=O)c3ccc(S(=O)(=O)N4CCCC4)cc3)nc12 -4.9%
Cc1ccc(NC(=O)c2oc3ccc(S(=O)(=O)N4CCCCC4)cc3c2C)cc1C 0.634%
O=C(c1cc2ccc3cccnc3c2[nH]1)N1CCN(c2cccc(C(F)(F)F)c2)CC1 -3.37%
CCOC(=O)CSc1nc2sc3c(c2c(=O)n1Cc1ccccc1)CCC(C(C)(C)C)C3 (stereo not given) 8.78%
COc1ccc(CNC(=O)c2c(Nc3ccc(OC)cc3OC)sc(C(=O)c3ccc(Cl)cc3)c2N)cc1 6.05%
Cc1ccc(C)c(CN2C(=O)c3ccccc3S(=O)c3ccc(C(=O)N4CCC(C)CC4)cc32)c1 (stereo not given) -3.89%
COc1ccc(CNc2oc(-c3ccc(COc4ccc(Cl)cc4)o3)nc2C#N)cc1 1.29%
CCOC(=O)c1cccc(NC(=O)c2cc(S(=O)(=O)N3CCCCCC3)cn2C)c1 29.2%
COc1ccc2nc(S(=O)Cc3ncc(C)c(OC)c3C)[nH]c2c1 (stereo not given) -16.9%
COc1cc(O)ccc1C1CC(=O)Nc2c1c(=O)nc(SCc1ccccc1C)n2C (stereo not given) 3.36%
CCN1c2ccccc2-c2nc(SCC(=O)Nc3cccc(C(F)(F)F)c3)ncc2S1(=O)=O -3.71%
CCC(C)(C)NS(=O)(=O)c1cc(-c2cc(C)no2)ccc1C -2.44%
COc1ccc(CN(C(=O)c2cc3ccccc3oc2=O)C2CCS(=O)(=O)C2)cc1 (stereo not given) 9.27%
Cc1cc(C)cc(Nc2cc(C(=O)NCCCN(Cc3ccccc3)C(C)C)c3ccccc3n2)c1 -1.76%
CCOc1ccc(CNC(=O)c2cc(=O)[nH]c3ccc(S(=O)(=O)N4CCCCC4)cc23)cc1 6.29%
CC(C)OCCCNC(=O)CCCn1c(=O)[nH]c2ccsc2c1=O 20.6%
CCNC(=O)c1cc2c(-c3cc(OCCN4CCCC4)c(Cl)cc3Cl)nc(N)nc2s1 18.5%
Cc1ccc(CNC(=O)C2CCC(CNS(=O)(=O)c3ccc4c(c3)CCCC(=O)N4)CC2)cc1 (stereo not given) -3.28%
CCOC(=O)c1ccc(NC(=O)CCS(=O)(=O)c2ccc(C)cc2)cc1 2.73%
COc1ccc(NC(=O)CN2CCCN(S(=O)(=O)c3ccc(Br)cc3)CC2)c(OC)c1 9.96%
CC(=O)Nc1ccc(NS(=O)(=O)c2ccc3c(c2)CC(C)N3C(=O)C2CCC2)cc1 (stereo not given) 7.79%
COc1ccc(-c2nc3c4cnn(-c5ccccc5F)c4ncn3n2)cc1 -7.37%
CCN(Cc1ccccc1)C(=O)Cn1c(=O)n(-c2ccc(F)c(Cl)c2)c(=O)c2sc3ccccc3c21 22.3%
COc1ccc(N2CCN(S(=O)(=O)c3csc(C(N)=O)c3)CC2)cc1 12.7%
Cc1cccc(C)c1OCCSc1nc2ccccc2n1CC(=O)O 31.2%
O=C(Nc1ccc(F)cc1F)c1cc2c(=O)n3ccccc3nc2s1 -0.22%
CSc1ccc(CCNC(=O)c2ccc(CS(=O)(=O)c3ccc(Br)cc3)o2)cc1 0.367%
COCCNC(=O)c1cccc(Nc2nc3ccccc3n3nnnc23)c1 -8.55%
CCc1cccc(NC(=O)CCc2nc3cccnc3n2-c2ccccc2)c1 12.8%
Cc1cccc(N2CC(C)Cn3c2nc2c3c(=O)n(CC(=O)O)c(=O)n2C)c1 (stereo not given) 4.95%
Cc1ccc(-n2nc(C)c3c(C(=O)NCc4ccc(F)cc4)cc(C)nc32)cc1 -10.9%
O=c1c2sc3ccccc3c2n(Cc2cccc(C(F)(F)F)c2)c(=O)n1Cc1ccccc1 -7.07%
COc1ccc(NC(=O)CSc2nc(-c3cccs3)cc(C(F)(F)F)c2C#N)cc1 0.163%
COc1ccc(CNC(=O)c2cc3cc(S(=O)(=O)N4CCCCC4)ccc3n2C)c(OC)c1 -7.92%
O=C1N(Cc2cccc(C(F)(F)F)c2)c2ccccc2S(=O)(=O)N1c1cccc(Cl)c1 14.8%
CC1CCc2c(sc(NC(=O)c3ccc(Cl)cc3Cl)c2C#N)C1 (stereo not given) 6.76%
N#Cc1c(C(F)(F)F)cc(-c2cccs2)nc1SCC(=O)Nc1ccc(F)cc1 -22.6%

outcome, inactive:
Cc1c(CNCc2ccc(OC(C)C)cc2)c(C(=O)O)c(C)n1Cc1ccc(Cl)cc1
COc1ccc2c(c1)c1c(c(=O)n(CCc3ccccc3)c(=O)n1Cc1ccccc1)n2C
Cc1cccc(-c2nc(CCNC(=O)c3ccco3)cs2)c1
COC(=O)CC1Oc2ccc(F)cc2-n2cc(-c3ccc(Cl)cc3)nc21 (stereo not given)
O=C(Nc1cccc(-c2nc3ccccc3o2)c1)c1cc([N+](=O)[O-])ccc1N1CCOCC1
CCOc1cc(CNC(=O)c2ccc3c(c2)N(C)C(=O)C2CCCCN32)cc(OCC)c1OCC (stereo not given)
Cc1c(Cl)cccc1N1C(N)=C(C#N)C(c2cc(CN3CCOCC3)cs2)C2=C1CCCC2=O (stereo not given)
COc1ccc(NC(=O)CCc2c(C)nc3c(c2C)c(=O)n(C)c(=O)n3C)cc1OC
CCOC(=O)N1CCc2c(sc(NCc3ccc(N(C)C)cc3)c2C(=O)Nc2ccc(OC)cc2)C1
Cc1cc(F)ccc1NC(=O)CN(C)S(=O)(=O)c1ccc(C(=O)N2CCOCC2)s1
CCOc1ccc(NC(=O)c2c(NCc3sccc3C)sc3c2CCCCC3)cc1
COc1ccc(CNC(=O)c2ccc3c(c2)N(Cc2ccccc2F)C(=O)c2ccccc2S3(=O)=O)cc1

Source: PubChem BioAssay AID1963576 (National Center for Advancing Translational Sciences (NCATS), 2024)
